Assay results published in PMC10611751.
Results are given in words; binding and its absence hold for the method and conditions named. Some results given as binding are weak or reduced against the parent protein; the word gives no strength.

Protein sequences, listed by entry. Tags and fused reporters are not part of them. Lines headed by an entry give the natural chain unless they say otherwise; changes in a name come on top. Residues count along the entry.
UniProt P09803, residues 734-884: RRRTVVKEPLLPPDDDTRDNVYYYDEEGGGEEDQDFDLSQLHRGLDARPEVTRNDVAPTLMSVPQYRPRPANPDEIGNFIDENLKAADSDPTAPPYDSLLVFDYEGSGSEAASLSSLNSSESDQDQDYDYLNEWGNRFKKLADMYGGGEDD

B1: Ankyrin-G 24 ANK repeats (residues 38-855) (domain or fragment, UniProt O70511 38-855)
chain: KSDANASYLRAARAGHLEKALDYIKNGVDVNICNQNGLNALHLASKEGHVEVVSELLQREANVDAATKKGNTALHIASLAGQAEVVKVLVTNGANVNAQSQNGFTPLYMAAQENHLEVVRFLLDNGASQSLATEDGFTPLAVALQQGHDQVVSLLLENDTKGKVRLPALHIAARKDDTKAAALLLQNDTNADIESKMVVNRATESGFTPLHIAAHYGNINVATLLLNRAAAVDFTARNDITPLHVASKRGNANMVKLLLDRGAKIDAKTRDGLTPLHCGARSGHEQVVEMLLDRAAPILSKTKNGLSPLHMATQGDHLNCVQLLLQHNVPVDDVTNDYLTALHVAAHCGHYKVAKVLLDKKANPNAKALNGFTPLHIACKKNRIRVMELLLKHGASIQAVTESGLTPIHVAAFMGHVNIVSQLMHHGASPNTTNVRGETALHMAARSGQAEVVRYLVQDGAQVEAKAKDDQTPLHISARLGKADIVQQLLQQGASPNAATTSGYTPLHLSAREGHEDVAAFLLDHGASLSITTKKGFTPLHVAAKYGKLEVASLLLQKSASPDAAGKSGLTPLHVAAHYDNQKVALLLLDQGASPHAAAKNGYTPLHIAAKKNQMDIATSLLEYGADANAVTRQGIASVHLAAQEGHVDMVSLLLSRNANVNLSNKSGLTPLHLAAQEDRVNVAEVLVNQGAHVDAQTKMGYTPLHVGCHYGNIKIVNFLLQHSAKVNAKTKNGYTPLHQAAQQGHTHIINVLLQNNASPNELTVNGNTALAIARRLGYISVVDTLKVVTEEIMTTTTITEKHKMNVPETMNEVLDMS
B2: E-cadherin site-1 Y755A (domain or fragment, UniProt P09803 755-770)
chain: AYYDEEGGGEEDQDFD
B3: E-cadherin site-1 Y756A (domain or fragment, UniProt P09803 755-770)
chain: YAYDEEGGGEEDQDFD
B4: E-cadherin site-1 Y757A (domain or fragment, UniProt P09803 755-770)
chain: YYADEEGGGEEDQDFD
B5: E-cadherin site-2 Y829A (domain or fragment, UniProt P09803 828-842)
chain: PADSLLVFDYEGSGS
B6: E-cadherin site-2 Y837A (domain or fragment, UniProt P09803 828-842)
chain: PYDSLLVFDAEGSGS
B7: E-cadherin site-3 Y861A (domain or fragment, UniProt P09803 854-869)
chain: ESDQDQDADYLNEWGN
B8: E-cadherin site-3 Y863A (domain or fragment, UniProt P09803 854-869)
chain: ESDQDQDYDALNEWGN
B9: E-cadherin site-3 W867A (domain or fragment, UniProt P09803 854-869)
chain: ESDQDQDYDYLNEAGN
B10: E-cadherin site-1 Y755A, Y756A, and Y757A (domain or fragment, UniProt P09803 755-770)
chain: AAADEEGGGEEDQDFD
B11: E-cadherin site-2 Y829A and Y837A (domain or fragment, UniProt P09803 828-842)
chain: PADSLLVFDAEGSGS
B12: E-cadherin site-3 Y861A, Y863A, and W867A (domain or fragment, UniProt P09803 854-869)
chain: ESDQDQDADALNEAGN

What follows are binders tested against E-cadherin C-terminal domain (residues 734-884) (mouse) (UniProt P09803) (assay: NMR titration; [1H,15N]-HSQC of 100 μM 15N-labelled E-cadherin CTD with 50 μM or 100 μM unlabelled AnkG R1-24; 100 mM phosphate, 100 mM NaCl, pH 7.2; 283 K; both purified).
For B1, the binding was “binds”.

What follows are binders tested against Ankyrin-G 24 ANK repeats (residues 38-855) (UniProt O70511) (assay: ITC; E-cadherin proteins in the syringe (e.g. 200 μM Trx-E-cadherin) titrated into AnkG in the cell (e.g. 20 μM Trx-AnkG R1-24); 25 °C; 50 mM Tris, 100 mM NaCl, 1 mM EDTA, 1 mM DTT, pH 7.8; one-site binding model; both purified).
For B2, the binding was “binds”.
B3 was tested, and the binding was “binds”.
With B4 the binding was “binds”.
For B5, the binding was “binds”.
In the case of B6, the binding is reported as “binds”.
B7 was tested, and the binding was “binds”.
In the case of B8, the binding is reported as “binds”.
In the case of B9, the binding is reported as “binds”.
For B10, the binding was “no binding”.
With B11 the binding was “no binding”.
With B12 the binding was “no binding”.

What follows are binders tested against E-cadherin C-terminal domain (residues 734-884) (mouse) (UniProt P09803) (assay: SEC-MALS; analytical gel filtration with static light scattering; AnkG R1-24, E-cadherin CTD and β-catenin 1-781 mixed at 1:1:1, 2:1:1, 3:1:1 and 4:1:1 molar ratios; also E-cadherin CTD with β-catenin 1-781 alone; both purified).
In the case of B1, the binding is reported as “binds”.
